Results on 94 sequences are retold here after the supplement of paper PMC3334620.

Over roughly 33,000 sequences, “E-score (-0.5 to 0.5)” has its median near -0.041; the highest 2% begin near 0.37. This is one part of the list.

In this assay the target is T1, Ecm22 (UniProt Q05958).
T1 sequence: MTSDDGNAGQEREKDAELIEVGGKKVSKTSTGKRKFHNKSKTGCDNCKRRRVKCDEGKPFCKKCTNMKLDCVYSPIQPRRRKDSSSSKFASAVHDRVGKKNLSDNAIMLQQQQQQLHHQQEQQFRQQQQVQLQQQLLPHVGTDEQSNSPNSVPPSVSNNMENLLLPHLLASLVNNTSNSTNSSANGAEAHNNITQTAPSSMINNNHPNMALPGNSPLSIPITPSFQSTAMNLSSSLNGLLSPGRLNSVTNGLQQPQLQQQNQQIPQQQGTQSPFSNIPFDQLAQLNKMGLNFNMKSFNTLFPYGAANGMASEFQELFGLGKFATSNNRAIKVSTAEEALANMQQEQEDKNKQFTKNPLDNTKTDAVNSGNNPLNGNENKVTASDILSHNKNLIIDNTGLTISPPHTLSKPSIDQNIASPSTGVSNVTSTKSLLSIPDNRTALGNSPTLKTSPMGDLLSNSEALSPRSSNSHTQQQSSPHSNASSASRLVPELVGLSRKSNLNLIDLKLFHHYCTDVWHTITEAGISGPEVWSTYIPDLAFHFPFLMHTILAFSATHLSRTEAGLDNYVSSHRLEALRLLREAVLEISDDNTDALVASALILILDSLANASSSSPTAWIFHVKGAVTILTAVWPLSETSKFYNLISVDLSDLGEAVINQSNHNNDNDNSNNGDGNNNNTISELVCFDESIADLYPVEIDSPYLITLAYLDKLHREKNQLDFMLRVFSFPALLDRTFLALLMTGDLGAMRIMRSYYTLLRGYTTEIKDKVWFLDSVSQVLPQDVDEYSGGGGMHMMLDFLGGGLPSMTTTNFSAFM
The assay is described as follows: PBM E-score (8-mer binding enrichment) (E-score (-0.5 to 0.5)); higher = stronger / more preferred TF binding; most listed sequences are background and not binding sites. As to conditions: protein concentration: 200 nM; construct: GST-full length. In outline:
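GST-tagged yeast TFs (full-length or DNA-binding domain) were made by PURExpress in vitro transcription/translation and applied at about 100-200 nM to universal all-10-mer Agilent arrays. The arrays were made double-stranded by primer extension, on fresh or once-stripped slides. Bound protein was detected with fluorescent anti-GST, and scans were normalised with masliner. Each ungapped eight-base word, pooled with its reverse complement, received an E-score (modified Wilcoxon-Mann-Whitney statistic) from the Universal PBM Analysis Suite.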
With CCCATACG, the “PBM E-score” value stood at 0.368.

Consider CGTATGCA, for which the “PBM E-score” value was determined as 0.341.

Consider GAAAGCTC, for which the “PBM E-score” value is -0.0556. In the case of CAGCCAGA, the “PBM E-score” value was -0.0613. The result for AGAGAGGC reads -0.358; that for AAAAGAGT, -0.212; that for GATGGAAC, 0.214. In the case of AGAGTTAC, the “PBM E-score” value was -0.0231.

For the sequence CATTATAA, the “PBM E-score” value was 0.17. Take GCCTAGTA: the “PBM E-score” value is -0.0723. Regarding AATGTTTG, the “PBM E-score” value is -0.108. Regarding AAGCATAG, the “PBM E-score” value is -0.11. For the sequence ACAGTTGG, the “PBM E-score” value is -0.197. In the case of CATCATAC, the “PBM E-score” value was determined as 0.0354.

Regarding GACTGAGC, the “PBM E-score” value was -0.217. As to GGGGTCGA, the “PBM E-score” value was -0.159. With ATTATCGA, the “PBM E-score” value is -0.117. Under ACGAAGCA stands 0.378; under ATATCGAG, -0.0856. For AATGCTCT, the “PBM E-score” value is -0.102. CCCTCCTA: the “PBM E-score” value is -0.202.

Take GCAAATAC: the “PBM E-score” value was found to be 0.0525. As for GATACAAA, the “PBM E-score” value came out at 0.163.

As to CATGGTAG, the “PBM E-score” value was -0.127. The result for AAAGACGT reads 0.078.

With CAGCGGGG, the “PBM E-score” value is -0.19. For the sequence GTTTCCTA, the “PBM E-score” value was found to be 0.0344. Under ACAGCAAC stands -0.00316; under ATCCTAAG, 0.0699; under AAAACGGA, 0.0705. The result for CGTATCAC reads 0.365; that for CATTGTAC, 0.153. As to CTTACCCA, the “PBM E-score” value is -0.141. Under TTCCAGAA stands 0.0403; under CTGCAATA, 0.0156; under AGGATCAG, -0.202. As to GAGATACA, the “PBM E-score” value was -0.0964. For the sequence ACTTCAGC, the “PBM E-score” value is -0.171. As for GGATTACC, the “PBM E-score” value is -0.098. As to TGTGACAA, the “PBM E-score” value is -0.11.

In the case of GATAGGAA, the “PBM E-score” value was determined as 0.0954. Regarding AAGCGTGG, the “PBM E-score” value was -0.016. Under AGAACGCT stands -0.0941. Take CCAATACG: the “PBM E-score” value stood at 0.177. Under GACACGGA stands 0.173; under GACCTACA, -0.18. Take AAGAAATT: the “PBM E-score” value was 0.00396.

For the sequence ACACGCCG, the “PBM E-score” value is 0.131.

AAGTACTG: the “PBM E-score” value is -0.0128. For the sequence GTGCCCGA, the “PBM E-score” value was -0.265.

For the sequence AAACACAA, the “PBM E-score” value was -0.045. Under CTTGCGTA stands 0.149; under AGACGCGA, 0.136. The result for ACATCCCG reads 0.0243; that for AAAAGTAG, -0.248.

AACGGGTA: the “PBM E-score” value turned out to be 0.293. Take CGGAGGAC: the “PBM E-score” value was -0.0676. The result for AGAGTGAG reads -0.0279; that for CACCGACA, 0.023; that for ACTTGTCA, -0.0799. In the case of AGCAAGAC, the “PBM E-score” value was -0.107. Regarding ACGTTCCC, the “PBM E-score” value worked out at 0.269. On to ATTAATTG, for which the “PBM E-score” value was -0.107. Under CACACCTC stands -0.211; under CCAATAGC, -0.223. In the case of CTGGACAG, the “PBM E-score” value is -0.15. For the sequence ATGGGAAG, the “PBM E-score” value is -0.246. Turning to CGTCCAAA, the “PBM E-score” value is 0.0222. Under AACTTGTG stands -0.0165. AGAATCTA: the “PBM E-score” value was -0.12. AAACGATA: the “PBM E-score” value was 0.435. Under ATTTTAGG stands -0.0694; under ATAGCGTA, 0.15; under CTTGCAAG, -0.0454. Consider CTGACGAC, for which the “PBM E-score” value came to 0.0704. In the case of TACCCTGA, the “PBM E-score” value was -0.169. Regarding ATATGTTA, the “PBM E-score” value was -0.00028.

As for ACAGCATC, the “PBM E-score” value was -0.0999. Take AATGAGGA: the “PBM E-score” value is -0.192. Turning to GGGACAGA, the “PBM E-score” value is -0.127. Turning to GATTACAA, the “PBM E-score” value was 0.0151. With ATTGGTCG, the “PBM E-score” value was 0.0412. On to CGCGACGC, for which the “PBM E-score” value amounted to 0.201.

As for TCAAGCGA, the “PBM E-score” value came out at 0.219. Consider CCGGCGCA, for which the “PBM E-score” value is -0.0189. Under CAAGACAC stands -0.157; under CGTACTCA, 0.3.

Take GGCTTGAC: the “PBM E-score” value is -0.148. Consider ACAATGAA, for which the “PBM E-score” value is -0.0575. Turning to CGCTGTGA, the “PBM E-score” value was -0.136. Regarding AGCCGGTA, the “PBM E-score” value is -0.0104. For the sequence CCCCCCAG, the “PBM E-score” value is -0.442. Regarding AGAGCTCA, the “PBM E-score” value was -0.315. The result for ACCTCATA reads -0.0907.
